# From a collection of fitness landscapes (doi:10.1016/j.celrep.2020.107928)
# The full ranking holds about 81,000 sequences; the median of “one-hybrid fitness for binding NBS DNA” is about -0.1, and the highest 2% start at about 0.36. The list shows a part of the results.
# B1: Caulobacter ParB omega fusion; a variant is named by its letters at X, in order, B8GW30 (parent)
# chain: MESVVVGEPGMSEGRRGLGRGLSALLGEVDAAPAQAPGEQLGGSREAPIEILQRNPDQPRRTFREEDLEDLSNSIREKGVLQPILVRPSPDTAGEYQIVAGERAWRAAQRAGLKTVPIMVRELDDLAVLEIGIIENVQRADLNVLEEALSYKVLMEKFERTQENIAQTIGKSXSHVANXMRLLXLPDEVQSYLVSGELTAXHARAIAAAADPVALAKQIIEGGLSVRETEALARKAPNLSAGKSKGGRPPRVKDTDTQALESDLSSVLGLDVSIDHRGSTGTLTITYATLEQLDDLCNRLTRGI
# Variants of: B1
# Test: one-hybrid fitness for binding NBS DNA (the Noc-binding site; scaled: cognate 1, non-cognate 0); higher = stronger binding
# Settings: with NBS DNA site
# Method in brief: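 Pre- and post-selection plasmids were Illumina-sequenced, three replicate libraries were pooled, and any variant with under 10 reads was removed. The libraries were Caulobacter ParB with four specificity codons randomised, selected in E. coli USO through a HIS3 reporter whose site is 19 bp from the promoter. Cells grew 48 hours at 37°C on M9 without histidine, with 0.1 mM IPTG and 5 mM 3-AT. Fitness is the log change in variant-to-wild-type read ratio, rescaled against cognate and non-cognate.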
row,Variant,one-hybrid fitness for binding NBS DNA
1,HNPS,≤ 0.2
2,KIPY,≤ 0.2
3,RAWR,0.248
4,YMHR,≤ 0.2
5,RKTI,≤ 0.2
6,SNHW,≤ 0.2
7,SYTC,≤ 0.2
8,MMMF,≤ 0.2
9,RYVS,0.218
10,WWSS,≤ 0.2
11,SFRH,≤ 0.2
12,TEAN,≤ 0.2
13,VVSF,≤ 0.2
14,RRDN,≤ 0.2
15,WIWV,≤ 0.2
16,RMHH,≤ 0.2
17,QPGK,≤ 0.2
18,QAIS,≤ 0.2
19,TVIR,≤ 0.2
20,GMEL,≤ 0.2
21,INNR,≤ 0.2
22,HKRL,≤ 0.2
23,PGSD,≤ 0.2
24,EPTG,≤ 0.2

row,Variant,one-hybrid fitness for binding NBS DNA
1,GLTI,≤ 0.2
2,LHNP,≤ 0.2
3,GQDQ,≤ 0.2
4,MERM,≤ 0.2
5,WFSL,≤ 0.2
6,PWPM,≤ 0.2
7,IINS,≤ 0.2
8,SDKY,≤ 0.2
9,MHDS,≤ 0.2
10,EQFS,≤ 0.2
11,ESEG,≤ 0.2
12,PFRK,≤ 0.2
13,MCGW,≤ 0.2
14,VRAN,≤ 0.2
15,MTGV,≤ 0.2
16,GLYH,≤ 0.2
17,IYSP,≤ 0.2
18,PDKS,≤ 0.2
19,NKTR,≤ 0.2
20,QDTR,≤ 0.2
21,YGVD,≤ 0.2
22,EIKT,≤ 0.2
23,RYMP,≤ 0.2
24,IPQS,≤ 0.2

row,Variant,one-hybrid fitness for binding NBS DNA
1,LCTV,≤ 0.2
2,RPFI,≤ 0.2
3,VLIS,≤ 0.2
4,GLYI,≤ 0.2
5,AFIR,≤ 0.2
6,YHPI,≤ 0.2
7,QCMY,≤ 0.2
8,FQLA,≤ 0.2
9,HSAP,≤ 0.2
10,RKAE,≤ 0.2
11,IPRS,≤ 0.2
12,RASQ,≤ 0.2
13,PFTV,≤ 0.2
14,LVYI,≤ 0.2
15,KKHG,≤ 0.2
16,EFPK,≤ 0.2
17,WHTR,≤ 0.2
18,SHVV,≤ 0.2
19,YDSA,≤ 0.2
20,PDLD,≤ 0.2
21,GPMQ,≤ 0.2
22,QPWT,≤ 0.2
23,KGTN,≤ 0.2
24,QMEV,≤ 0.2

row,Variant,one-hybrid fitness for binding NBS DNA
1,WYYL,≤ 0.2
2,LEDG,≤ 0.2
3,HTAA,≤ 0.2
4,QFWF,≤ 0.2
5,DGVR,≤ 0.2
6,NDCS,≤ 0.2
7,QQNT,0.596
8,QGAH,≤ 0.2
9,TNAG,≤ 0.2
10,YPRM,≤ 0.2
11,TFAI,≤ 0.2
12,VWSN,≤ 0.2
13,YTTC,≤ 0.2
14,MYGR,≤ 0.2
15,SKVQ,≤ 0.2
16,SPNV,≤ 0.2
17,IARE,≤ 0.2
18,AHVE,≤ 0.2
19,FHTC,≤ 0.2
20,VKQS,≤ 0.2
21,DAYR,≤ 0.2
22,TQCI,≤ 0.2
23,KCTS,≤ 0.2
24,QLFT,0.289

row,Variant,one-hybrid fitness for binding NBS DNA
1,QSPV,≤ 0.2
2,MKRR,≤ 0.2
3,WFRS,≤ 0.2
4,KRNE,≤ 0.2
5,PTCE,≤ 0.2
6,WHMR,≤ 0.2
7,AGDA,≤ 0.2
8,VEAC,≤ 0.2
9,MEPY,≤ 0.2
10,PFSC,≤ 0.2
11,DQLT,≤ 0.2
12,CPIC,≤ 0.2
13,QKNM,≤ 0.2
14,RWMK,≤ 0.2
15,LPKH,≤ 0.2
16,VHGT,≤ 0.2
17,LEEG,≤ 0.2
18,TGNW,≤ 0.2
19,IGLI,≤ 0.2
20,MMNF,≤ 0.2
21,EKPR,≤ 0.2
22,CMRW,≤ 0.2
23,VPVV,≤ 0.2
24,HYCT,≤ 0.2

row,Variant,one-hybrid fitness for binding NBS DNA
1,RWPL,≤ 0.2
2,IEGT,≤ 0.2
3,SANF,≤ 0.2
4,HRCK,≤ 0.2
5,SSFF,≤ 0.2
6,QSPC,≤ 0.2
7,LHRQ,≤ 0.2
8,MILE,≤ 0.2
9,NVRM,≤ 0.2
10,LEQS,≤ 0.2
11,TMQT,≤ 0.2
12,MSGR,≤ 0.2
13,TFRN,≤ 0.2
14,IYDK,≤ 0.2
15,FGNS,≤ 0.2
16,TYWC,≤ 0.2
17,FVRV,≤ 0.2
18,WTSG,≤ 0.2
19,MMWR,≤ 0.2
20,LAVN,≤ 0.2
21,DDCS,≤ 0.2
22,PGRH,≤ 0.2
23,TCSN,≤ 0.2
24,FNFV,≤ 0.2

row,Variant,one-hybrid fitness for binding NBS DNA
1,ITSV,≤ 0.2
2,PEMV,≤ 0.2
3,LHRK,≤ 0.2
4,TDTE,≤ 0.2
5,RKHF,≤ 0.2
6,DRMS,≤ 0.2
7,WAPI,≤ 0.2
8,VRKS,0.309
9,RVTI,≤ 0.2
10,GCTS,≤ 0.2
11,PSDG,≤ 0.2
12,MGDS,≤ 0.2
13,ARHA,≤ 0.2
14,LLRF,≤ 0.2
15,PLSV,≤ 0.2
16,TQEC,≤ 0.2
17,VRTL,≤ 0.2
18,DADM,≤ 0.2
19,NVEG,≤ 0.2
20,LGRQ,≤ 0.2
21,CRGV,≤ 0.2
22,RDLW,≤ 0.2
23,GNQR,≤ 0.2
24,RCGV,≤ 0.2

row,Variant,one-hybrid fitness for binding NBS DNA
1,NHLT,≤ 0.2
2,NAMT,≤ 0.2
3,IFCS,≤ 0.2
4,TMIR,≤ 0.2
5,KHHF,≤ 0.2
6,GHCS,≤ 0.2
7,GCPK,≤ 0.2
8,DHGG,≤ 0.2
9,VGIT,≤ 0.2
10,GILG,≤ 0.2
11,APNN,≤ 0.2
12,PHGT,≤ 0.2
13,CVLI,≤ 0.2
14,DKAD,≤ 0.2
15,PNRG,≤ 0.2
16,YHDR,≤ 0.2
17,LQTA,≤ 0.2
18,NWTR,≤ 0.2
19,RILM,≤ 0.2
20,TVRD,≤ 0.2
21,TGTI,≤ 0.2
22,MVNC,≤ 0.2
23,WGKM,≤ 0.2
24,TESM,≤ 0.2

row,Variant,one-hybrid fitness for binding NBS DNA
1,YKSY,≤ 0.2
2,SRTL,≤ 0.2
3,IYRS,≤ 0.2
4,PFVT,≤ 0.2
5,NKNV,≤ 0.2
6,NLNL,≤ 0.2
7,HREW,≤ 0.2
8,DNSE,≤ 0.2
9,HGSI,≤ 0.2
10,CQNC,≤ 0.2
11,AGTK,≤ 0.2
12,MYYS,≤ 0.2
13,YMHA,≤ 0.2
14,THIR,≤ 0.2
15,HVGS,≤ 0.2
16,VDMT,≤ 0.2
17,KVWM,≤ 0.2
18,QKVG,≤ 0.2
19,YLTS,≤ 0.2
20,LYER,≤ 0.2
21,QRDW,≤ 0.2
22,TTRA,≤ 0.2
23,FPVS,≤ 0.2
24,WRHT,≤ 0.2

row,Variant,one-hybrid fitness for binding NBS DNA
1,RQCS,0.278
2,QICW,≤ 0.2
3,CEKE,≤ 0.2
4,NPIH,≤ 0.2
5,HFKC,≤ 0.2
6,CVGR,≤ 0.2
7,TIQI,≤ 0.2
8,QMIE,≤ 0.2
9,YSDV,≤ 0.2
10,RQSF,≤ 0.2
11,VASI,≤ 0.2
12,RAIF,≤ 0.2
13,HEGR,≤ 0.2
14,CIQS,≤ 0.2
15,PWYI,≤ 0.2
16,QSWY,≤ 0.2
17,WAPR,≤ 0.2
18,PWAW,≤ 0.2
19,LQGM,≤ 0.2
20,SLST,≤ 0.2
21,QDGL,≤ 0.2
22,INIY,≤ 0.2
23,CLGA,≤ 0.2
24,RMAL,≤ 0.2

row,Variant,one-hybrid fitness for binding NBS DNA
1,DRMR,≤ 0.2
2,VLYW,≤ 0.2
3,QRRI,0.43
4,RDIR,≤ 0.2
5,AADE,≤ 0.2
6,ERLC,≤ 0.2
7,QEWA,≤ 0.2
8,WGVG,≤ 0.2
9,LITE,≤ 0.2
10,TNNR,≤ 0.2
11,SAKS,≤ 0.2
12,FAGV,≤ 0.2
13,PIYV,≤ 0.2
14,MLHK,≤ 0.2
15,LTKF,≤ 0.2
16,VSRT,≤ 0.2
17,KTWL,≤ 0.2
18,PQPK,≤ 0.2
19,HTCT,≤ 0.2
20,LGNC,≤ 0.2
21,DYSG,≤ 0.2
22,ITLR,≤ 0.2
23,YKPV,≤ 0.2
24,QRLW,0.215

row,Variant,one-hybrid fitness for binding NBS DNA
1,ASLY,≤ 0.2
2,PYSF,≤ 0.2
3,QCMA,0.303
4,EGMD,≤ 0.2
5,TIEM,≤ 0.2
6,SCAA,≤ 0.2
7,NDER,≤ 0.2
8,RYFD,≤ 0.2
9,QCGD,≤ 0.2
10,YRCR,≤ 0.2
11,RIIP,≤ 0.2
12,LMSC,≤ 0.2
13,EVDG,≤ 0.2
14,TTGE,≤ 0.2
15,DTRV,≤ 0.2
16,IKMS,≤ 0.2
17,NRMS,≤ 0.2
18,MYPK,≤ 0.2
19,EMKP,≤ 0.2
20,VTHC,≤ 0.2
21,LRNR,0.244
22,STVG,≤ 0.2
23,LTQI,≤ 0.2
24,PRME,≤ 0.2

row,Variant,one-hybrid fitness for binding NBS DNA
1,DSEC,≤ 0.2
2,YLFE,≤ 0.2
3,EVAC,≤ 0.2
4,HSIR,≤ 0.2
5,GCNT,≤ 0.2
6,DAFN,≤ 0.2
7,MFKR,≤ 0.2
8,TDST,≤ 0.2
9,GRDS,≤ 0.2
10,PHIC,≤ 0.2
11,MHRR,≤ 0.2
12,GVWK,≤ 0.2
13,HMTW,≤ 0.2
14,QSYE,≤ 0.2
15,PTRE,≤ 0.2
16,DRST,≤ 0.2
17,RYCS,0.395
18,TEFG,≤ 0.2
